The record followed here is PubChem BioAssay AID602332 (National Center for Advancing Translational Sciences (NCATS), 2012).

The structures appear in SMILES notation. “And” between values parts separate entries of the source, which are not always exact repeats. Identical values can stand only once. The whole screen tested about 420,000 compounds, of which about 75 (0.02%) were called active. Calls follow the shape of the dose curve; as a rule, active = well fitted activation curve with a large enough effect; inconclusive = small, poorly fitted or top-dose-only effect; inactive = no such curve, though single readings can be large or run the other way. The list shows a part of the results, in another mix than the full data.
Potency is read from the fitted curve at half-maximal effect.

This experiment can be described thus: qHTS for Inducers of the Endoplasmic Reticulum Stress Response (ERSR) in Human Glioma: qHTS. Also: nearly all actives have a fitted effect of over 35% in size. As to activation: % of control where 0% means no effect. The following applies: U87-MG GRP78 promoter luciferase reporter, 16 h; activation: stronger effect = higher value. From the text: Primary protein unfolding takes place for many diseases, including diabetes and hypoxia, , and triggers a reaction in the cells called ER stress response (ERSR). ). ERSR is designed as a repair mechanism, but ultimately leads to cell death via apoptosis if conditions triggering protein unfolding persist (1). The molecular clue to ERSR activation is the enhancement of the expression of key molecular chaperones, including the glucose regulated protein (GRP) 78. GRP78 is the main sensor for protein folding and the main actuator of the ERSR.
In a collaboration between the Southern Research Institute and the NIH Chemical Genomics Center, a cell based screen was developed that reliably uses GRP78 as a sensor to identify small molecules as inducers of ERSR. In resting conditions, GRP78 binds proteins and acts as a natural repressor. Once unfolded proteins are present in the ER, GRP78 releases some of the repressors and binds to the unfolded proteins. The release of the repressors executes the ERSR program. Using a human glioma cell line in a miniaturized, luminescent format, a high-throughput screen was developed to identify actuators of the ERSR.
(1) Soboloff, J. and S. A. Berger (2002). "Sustained ER Ca2+ depletion suppresses protein synthesis and induces activation-enhanced cell death in mast cells." J Biol Chem 277(16): 13812-20.
NIH Chemical Genomics Center [NCGC]
NIH Molecular Libraries Probe Centers Network [MLPCN]
Assay Submitter (PI): Maurizio Grimaldi, Southern Research Institute
Stable transfected human glioma cell line, U87-MG, are dispensed at density 1000 cells/well into Greiner white solid bottom 1536-well assay plates. Compounds are transferred via Kalypsys pin tool equipped with 1536-pin array (10nl slotted pins, V&P Scientific, San Diego, CA). The assay plates will be incubated for 16 hours and developed by adding appropriate quantities of the Promega Bright Glo reagent. The plates will be incubated at room temperature for 10 minutes prior to being transferred into a ViewLux high-throughput CCD imager (PerkinElmer), wherein end-point measurements of luminescence are acquired.
A general note: Quantitative high-throughput screening tests each substance at several concentrations.
As to `COc1cc(C2CC(=O)Oc3ccc(O)cc32)cc(OC)c1OC` (centres undefined), the Potency was active: 50.1 µM. On to `COc1ccc(C(=O)Nc2ccccc2C(=O)N/N=C/c2ccc(O)c(OC)c2)cc1`, for which the activation is inactive: -15.2%. On to `COCCCn1cnc2c(c1=O)c1nc3ccccc3nc1n2-c1ccccc1`, for which the activation is inactive: -18.5%. Turning to `COCCn1c(C)cc(C(=O)COC(=O)c2cccc(O)c2)c1C`, the activation is inactive: -13.8%. Same read-out and setting: the value for `OCCN1CCN(CC/C=C2\c3ccccc3Sc3ccc(C(F)(F)F)cc32)CC1` was inactive: -4.57%; that for `CCN(CC)S(=O)(=O)c1cc(NC(=O)Cn2ncc(Cl)c(Cl)c2=O)ccc1C` was inactive: -17.9%. As for `CCOC(=O)N1CCN(/[N+]([O-])=N/Oc2ccc([N+](=O)[O-])cc2[N+](=O)[O-])CC1`, the activation was inactive: -12.1% and inactive: -1.5% and inactive: -14.5%. Consider `Cc1ccc(C(=O)n2nc(-c3cccnc3)nc2N)cc1`, for which the activation was inactive: -15.3%. On the same count and under the same terms, the value for `CC(C)(C)c1ccc(S(=O)(=O)/C=C\C#N)cc1` was inactive: -9.78%; that for `Cc1noc2ncnc(Sc3c(Cl)cccc3Cl)c12` was inactive: -18.6%; that for `CCOC(=O)/C(=C\c1ccc(OC(F)F)cc1)C1=Nn2c(nnc2-c2ccc(Cl)cc2)SC1` was inactive: -15.8%. Take `CN(C)c1ccc(Nc2nc(-c3cccnc3)cs2)cc1`: the activation is inactive: -14.1%. On to `O=C(Nc1ccc(NC(=O)C2CCCCC2)cn1)c1ccco1`, for which the activation is inactive: -16.9%. On the same count and under the same terms, next, `CCOc1ccc(-c2cn3ccccc3n2)cc1`: inactive: -15.1%; `Cc1ccccc1CNc1ncnc2c1ncn2C1OC(CO)C(O)C1O` (centres undefined): inactive: 13.6%; `COc1ccc2c(c1)c(CC(=O)O)c(C)n2C(=O)c1ccc(Cl)cc1`: inactive: -2.82% [middle of 7 runs].

In the case of `O=C(N/C(=C\c1ccccc1)C(=O)N1CCCCC1)c1ccco1`, the activation was inactive: -3.67%. As to `COc1cc(/C=C/c2cc(C(F)(F)F)[nH]c(=O)n2)cc(OC)c1OC`, the activation was inactive: -16.9%.

Consider `COc1cccc(-c2cc(=O)c3ccccc3o2)c1N`, for which the activation is inactive: -4.42% [middle of 4 runs].

`CCCCCCCCCCCCCCC[C@H](O)[C@H](N)CO`: the activation is inactive: -4.84% and inactive: -2.95% and inactive: -13%. Consider `COC(=O)CNC(=O)C(Cc1ccccc1)NS(=O)(=O)c1ccc2c(c1)c(=O)n(C)c(=O)n2C` (centres undefined), for which the activation was inactive: -0.581%. Same read-out and setting: the value for `CN1CCN(CCCN2c3ccccc3Sc3ccc(C(F)(F)F)cc32)CC1` was inactive: -6.31% [middle of 9 runs]; that for `COc1ccc(/C=C/C(=O)Nc2ccccc2C(=O)O)cc1OC` was inactive: -7.58% and inactive: -10.3% and inactive: -11.5%; that for `COC1=C2C[C@H](C)C[C@H](OC)[C@H](O)[C@@H](C)/C=C(/C)[C@H](OC(N)=O)[C@@H](OC)/C=C\C=C(\C)C(=O)NC(=CC1=O)C2=O` was inactive: -0.197%. As for `Oc1ccc(/C=C/c2cc(O)cc(O)c2)cc1`, the activation is inactive: -3.38% [middle of 5 runs].

Consider `COc1ccc(/C=C/C(=O)Nc2ccccc2C(=O)O)cc1`, for which the activation is inactive: -12%. For `COc1ccc(OCc2cccc(C(=O)Nc3cc(C)on3)c2)cc1`, the activation is inactive: -12.7%. Still for that read-out and setting: next, `COc1ccccc1/C=C/C1(C(=O)NC2CCCC2)CC(=O)N1c1ccc(F)cc1` (centres undefined): inactive: -17.2%; `O=C(Nc1ccccc1)c1cc([N+](=O)[O-])ccc1Cl`: inactive: 1.16% [middle of 4 runs]. On the same count and under the same terms, the value for `CN(C(=O)COC(=O)c1nc(Cl)c(Cl)c(Cl)c1Cl)C1CCS(=O)(=O)C1` (centres undefined) was inactive: -14.7%; that for `O=C(/C=C\Nc1cccc(F)c1)c1ccc2c(c1)OCO2` was inactive: -14.9%; that for `C/C(=N\NC(=O)c1ccc(Cl)cc1)c1cccs1` was inactive: -14.6%. Turning to `COc1cccc(C(=O)Nc2nc3ccccc3[nH]2)c1`, the activation is inactive: -15.6%. Still for that read-out and setting: the value for `CC1C/C(=C/c2ccccn2)C(=O)/C(=C/c2ccccn2)C1` (centres undefined) was inactive: -16.4%; that for `Cc1[nH]c2ccccc2c1C(O)CN1CCN(c2cccc(C(F)(F)F)c2)CC1` (centres undefined) was inactive: -18.8%. For `C=C1C(=O)O[C@@H]2[C@@H]1CC/C(C)=C\CC[C@@]1(C)O[C@H]21`, the activation was inactive: -11.5%. With `COc1cc(-c2noc(C)c2C#CC2(O)CCCCC2)cc(OC)c1OC`, the activation was inactive: -3.15%. As to `NC1=NN=C(c2ccc3c(c2)OCCO3)CS1`, the activation was inactive: -14.2%. Still for that read-out and setting: next, `Cn1c(-c2ccccc2)cnc1SCC(=O)N1CCCCC1`: inactive: -14.7%; `COc1ccc(NC(=O)Cn2ncc(Cl)c(Cl)c2=O)cc1S(=O)(=O)N1CCOCC1`: inactive: -15.4%. The same measure, in the same setting: next, `CCN(CC)CCC(c1cc(OC)c(OC)c(OC)c1)c1c(OC)cc(OC)c2c(C)cc(=O)oc12` (centres undefined): inactive: -4.82%. On the same count and under the same terms, the value for `Cc1ccccc1CS(=O)(=O)c1ncc(Cl)c(C(=O)Nc2ccc(F)cc2)n1` was inactive: -15%; that for `CCCCCN(CCCCC)C(=O)[C@H](CCC(=O)O)NC(=O)c1ccc(Cl)c(Cl)c1` was inactive: -3.21%; that for `O=C(c1ccc(Cl)cc1)N1CCCCC(Sc2nnc(-c3ccc4c(c3)OCO4)o2)C1=O` (centres undefined) was inactive: -13.8%.

For `Cc1[nH]c2ccccc2c(=O)c1C(=O)/C=C/c1ccccc1`, the activation was inactive: -15.3%.

Regarding `c1ccc(-c2noc(-c3cccnc3)n2)nc1`, the activation is inactive: -12.3%. With `CN(C(=O)c1ccco1)c1nc2c(s1)CCCC2`, the activation is inactive: -12.2%. The same measure, in the same setting: next, `COc1ccc(-c2ccoc2)cc1C1C2C=CCC(C)C2C(=O)N1Cc1ccccc1` (centres undefined): inactive: -4.46%.

Take `CCc1ccc(OCC(=O)NC(NC(=S)Nc2ccc(C)cc2C)C(Cl)(Cl)Cl)cc1` (centres undefined): the activation is inactive: -14.7%.

For the compound `Cc1cc(=O)[nH]c(-c2ccccc2)n1`, the activation is inactive: -19.2%.

For `CCCCCCCCCCCCCCCC(O)C(N)CO` (centres undefined), the activation is inactive: -1.19%.

For the compound `C=CC[C@H](CC(=O)OC(C)(C)C)C(=O)OC[C@H]1CCCN1C(=O)[C@H](CC=C)CC(=O)NCCO`, the activation was inactive: -3.44%.

Take `Cc1ccccc1CN1C(=O)c2ccccc2Sc2ccc(C(=O)O)cc21`: the activation is inactive: 3.99%.

`C=CCc1ccc(OCc2ccc(C(=O)OC)o2)c(OC)c1`: the activation is inactive: -12.4%.

On to `O=C1C2C(c3cccc(/C=C/c4ccccc4)c3)CC=CC2C(c2ccc3ccccc3c2)N1Cc1ccccc1` (centres undefined), for which the activation is inactive: 1.84%. Turning to `COc1ccc(-c2cc(C(=O)N3CCOCC3)no2)cc1`, the activation is inactive: -15.8%. On the same count and under the same terms, the value for `c1ccc(-c2noc(-c3ccc4ccccc4c3)n2)nc1` was inactive: -16.4%; that for `CCCCn1c(=O)[nH]c(=O)c2c1nc(Cn1ncc(Cl)c(Cl)c1=O)n2CCC` was inactive: -19%; that for `Cc1c(C(=O)c2no[n+]([O-])c2C(=O)c2cnn(C)c2C)cnn1C` was inactive: -18.5%. Take `CCCOc1ccc(C(=O)CCN2CCN(C(=O)OCC)CC2)cc1`: the activation is inactive: -16.9%.

As for `CC(C)(C)[C@@H]1CCC(=O)N(CC[C@H](Sc2ccccc2)c2ccccc2)CC1`, the activation is inactive: 11.4%. For `Cn1ncc(S(=O)(=O)Cc2ccccc2)c(Br)c1=O`, the activation was inactive: -14.7%. In the case of `O=C1Cc2c([nH]c3ccc(Br)cc23)-c2ccccc2N1`, the activation was inactive: 7.54% and inactive: -2.34% and inactive: 3.21%. The same measure, in the same setting: next, `CCc1ccc(C(=O)Nc2nc3ccccc3[nH]2)cc1`: inactive: -17.6%; `COc1ccc(/C=C2\C(=O)ON=C2c2ccccc2)cc1OC`: inactive: -13.4%. On the same count and under the same terms, next, `CC(=O)OC1CC[C@]2(C)C(CC(OC(C)=O)[C@@]3(C)C4=CC(=O)OC(c5ccoc5)[C@]4(C)CCC23)C1(C)C` (some centres undefined): inactive: 13%; `O=c1c(-c2ccc(O)cc2)coc2cc(O)ccc12`: inactive: 1.58% [middle of 7 runs]. Turning to `Cc1c(O)cc2c(c1O)C(=O)CC(c1ccccc1)O2` (centres undefined), the Potency is active: 28.2 µM. Take `CCCc1[nH]nc2c1C(C1CCCCC1)C(C#N)=C(N)O2` (centres undefined): the Potency is active: 35.5 µM. With `COc1ccc(O)c(-c2cc(-c3cccc(Br)c3)n[nH]2)c1`, the activation was inactive: -18.6%. `Cc1ccc(N2C(=O)CSC23C(=O)Nc2ccccc23)cc1` (centres undefined): the activation is inactive: 5.36%. As to `COc1ccc(NC(=O)N2CCc3ccccc32)cc1`, the activation was inactive: -12.2%. Consider `Cc1cccc(C)c1NC(=S)NCCc1ccc(O)c(O)c1`, for which the Potency is active: 15.8 µM. In the case of `CC[C@H](C)[C@@H]1O[C@]2(CC[C@@H]1C)C[C@H]1C[C@H](CC=C(C)[C@@H](O[C@@H]3C[C@H](OC)[C@H](O[C@@H]4C[C@H](OC)[C@H](O)[C@H](C)O4)[C@H](C)O3)[C@@H](C)C=CC=C3CO[C@@H]4[C@@H](O)C(C)=C[C@@H](C(=O)O1)[C@]34O)O2`, the activation was inactive: -5.27%.

Consider `N#C/C(=C\c1ccc(O)c(O)c1)C(=O)NCCc1ccccc1`, for which the activation was inactive: 7.24%.

With `O=C1c2c(O)cc(O)cc2O[C@H](c2ccc(O)c(O)c2)C1O` (some centres undefined), the activation is inactive: 9.67%. Same read-out and setting: next, `Cc1ccc(-n2nnnc2Sc2ccc(S(=O)(=O)NCCN(C)C)cc2[N+](=O)[O-])cc1`: inactive: -15.3%. The same measure, in the same setting: the value for `CN(C)c1ccc(/C=C/c2ccc3c4ccccc4ccc3[n+]2-c2ccccc2)cc1` was inactive: -18.1%; that for `CCC(=O)Nc1ccc2oc(-c3cccc(C)c3)nc2c1` was inactive: -12.3%; that for `COC(=O)CSc1nc2c(c(=O)n(C)c(=O)n2C)n1CCC(C)C` was inactive: -0.651%. Same read-out and setting: the value for `CC(C)(C)C(=O)N1CCc2cc(-c3csc(N)n3)ccc21` was inactive: -16.4%. For `Cc1ccccc1NC(=O)C(Cl)=C(Cl)Cl`, the Potency is active: 35.5 µM. On to `CCc1nnc(NC(=O)c2nc(S(=O)(=O)Cc3ccccc3)ncc2Cl)s1`, for which the activation is inactive: -19.3%. Take `OC(CNCC1CCCO1)Cn1c2ccc(Br)cc2c2cc(Br)ccc21` (centres undefined): the activation was inactive: -15.6%.
